Results reported in US20260048100A1.
Read-outs that look alike come from different tables or passages of the source.

Assays:
[1] = target: receptor of IL-15 on the target cell (Mo7e cells); assay: cell-based or functional assay
[2] = target: receptor of IL-15 on the target cell (Mo7e cells); assay: cell-based or functional assay; remark: listed apart in the source

Row | Binder | EC50, Mo7e cell proliferation (CCK-8) [1] | EC50, Mo7e cell proliferation (CCK-8) [2] [nM] | fold recovery of Mo7e proliferation activity against the uncleaved protein [1] [fold]
1 | LH02 fusion protein (Fc fusion) [human IgG1 Fc with changes not listed]ITCPPPMSVEHADIWVKSYSLYSRERYICNSGFKRKAGTSSLTECVLNKATNVAHWTTPSLKCIRDPALVHQRPAPPSTVTTAGVSGGSGGGGSGGGSGGGGSLQ[about 120 residues not listed] | 0.69 nM | 2.74 | 
2 | LIC18 fusion protein after cleavage by urokinase (protein) ITCPPPMSVEHADIWVKSYSLYSRERYICNSGFKRKAGTSSLTECVLNKATNVAHWTTPSLKCIRDPALVHQRPAPPSTVTTAGVSGGSGGGGSGGGSGGGGSLQ[about 120 residues not listed]GSSGGSGGSGGSGLSGRSDNHGSSGGSGGSGGSG[human IgG4 Fc with S228P (EU numbers) not listed] | 0.0449 µg/mL |  | > 400
